According to PubChem BioAssay AID1345082 (National Center for Advancing Translational Sciences (NCATS), 2018):
“And” between values parts separate entries of the source, which are not always exact repeats. Identical values can stand only once. Hit rate of the full screen: of about 94,000 compounds, about 4,000 (4.3%) were called active. Inconclusive means that the source gave no clear call. Such entries were picked first, then a sample of the others. The call rests on the fitted dose curve; in most records, active means well fitted inhibition curve with a large enough effect; inconclusive means small, poorly fitted or top-dose-only effect; inactive means no such curve, though single readings can be large or run the other way. Where the call is inconclusive, the potency comes from a doubtful curve fit.

Test: Cytotoxic Profiling in NIH 3T3 Cell Line of Diverse Libraries Using Quantitative High-Throughput Screening; further: nearly all actives have a fitted effect of over 55% in size
Details: NIH 3T3 viability, CellTiter-Glo ATP luminescence, 48-72 h; activity change, negative = cytotoxicity: at 96.7 µM (top of the series) unless noted; series mostly up to 96.7 µM
Procedure, shortened: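 Cytotoxicity was measured by CellTiter-Glo ATP luminescence after 48 or 72 h compound exposure at 37 °C. Mouse NIH 3T3 fibroblasts were seeded at 400 cells/well and dosed by 23 nL pin transfer.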
On the % scale 0 is the no-effect control and ±100 the full control effect; potency means the concentration at half of the fitted maximal effect; tags describe the fitted curve by direction and shape.

SMILES	Potency	activity change, negative = cytotoxicity	outcome
CC(C)[S+](=O)([O-])N(C)Cc1cccc(N2CCN([S+](=O)([O-])c3c(Cl)cccc3Cl)CC2)c1F	inconclusive: 8.91 µM [inhibitor, full curve, poor fit]		
Cc1cc(C(=O)NC2CCCN(c3ccnc4ccnn34)C2)ccc1Cl (stereo unspecified)	inconclusive: 50.1 µM [inhibitor, partial curve, poor fit]		
COc1cccc(CCC(=O)N2CCCC2c2nc(C3CCOCC3)no2)c1 (stereo unspecified)		inactive: -6.83%	
Cc1cc2c(-c3ccc(CO)cc3)nc(-c3c(C)noc3C)cc2[nH]1	active: 10 µM		
CC(C)C[C@@H]1N[C@H](C(=O)NCc2cccnc2)Cc2c[nH]c3cccc1c23	inconclusive: 112 µM [inhibitor, partial curve]		
COC(=O)C[C@H]1c2cccnc2C(=O)N(C)[C@@H]1C(=O)NCCc1ccccc1	inconclusive: 35.5 µM [inhibitor, single point]		
COc1ccc(-c2ccc3ncc(Nc4ccc(CN5CCN(C)CC5)cc4)n3n2)cn1	inconclusive: 89.1 µM [inhibitor, partial curve]		
O=C(Cc1ccccc1)N1CCCC2(CC(c3ccccc3)=NO2)C1 (stereo unspecified)		inactive: -7.13%	
O=C(C1CC1)N1CCc2nc(C3CC3)nc(-c3ccc(O)cc3)c2CC1		inactive: -11.8%	
Clc1cccc(-c2cnc([C@@H]3COCCN3C3CCCCC3)[nH]2)c1	inconclusive: 70.8 µM [inhibitor, partial curve, poor fit]		
CCN1c2cc(C(=O)Nc3cccc(Cl)c3)ccc2C(=O)N2CCCC21 (stereo unspecified)	inconclusive: 44.7 µM [inhibitor, partial curve, poor fit]		
Cc1c(C(=O)N2CCOCC(CO)C2)n(C)c2c(C)cccc12 (stereo unspecified)	inconclusive: 100 µM [inhibitor, partial curve, poor fit]		
CNC(=O)c1cc(C2CC2)nc2c1c(C1CCCN1C(=O)c1ccc(C)cc1)nn2C (stereo unspecified)		inactive: -28.5%	
Oc1ccc(-c2ccc(-c3nc(CCc4ccccc4)no3)cn2)cc1	inconclusive: 35.5 µM [inhibitor, partial curve, poor fit]		
COc1cccc(-c2nc3cnccn3c2NCCC(=O)N2CCc3ccccc32)c1		inactive: -9.35%	
O=C(NCc1ccc(F)cc1)C1CCCN(c2nccc(Nc3ccccc3F)n2)C1 (stereo unspecified)	active: 28.2 µM		
Cc1ccc(OCCC2CCN(C(=O)c3cnccc3C)C2)cc1 (stereo unspecified)		inactive: -16.8%	
O=C(Cc1cccc(Cl)c1)N1CCCC(C(=O)N2CCC(N3CCOCC3=O)CC2)C1 (stereo unspecified)		inactive: -7.97%	
O=C(c1cccc(Br)c1)N1CCN(c2ccnc3ccnn23)CC1	inconclusive: 50.1 µM [inhibitor, partial curve, poor fit]		
O=C(NC1CCCCC1)N1CCC(c2noc(-c3ccccn3)n2)C1 (stereo unspecified)		inactive: -4.85%	
COc1ncccc1-c1ncc2c(n1)OCCN(Cc1ccccc1)C2=O	inconclusive: 100 µM [inhibitor, partial curve, poor fit]		
CCCN(Cc1nc(-c2ccc(C(F)(F)F)cc2)oc1C)CC1CCCO1 (stereo unspecified)	inconclusive: 50.1 µM [inhibitor, partial curve, poor fit]		

SMILES	Potency	activity change, negative = cytotoxicity	outcome
c1ccc(-c2noc(-c3ccccc3OC3CNC3)n2)cc1	active: 28.2 µM		
O=C(CC1CCCC1)N1CCN(Cc2ccc(=O)n(CC3CC3)c2)CC1	inconclusive: 35.5 µM [inhibitor, partial curve, poor fit]		
Cc1ccccc1C(=O)N1CCC(CCC(=O)NCCC(C)C)CC1		inactive: -24.5%	
COc1ccc(CN2C[C@@H]3C(=O)N(CCN4CCc5ccccc5C4)C(=O)[C@@H]3C2)c(OC)c1		inactive: -16.2%	
Cc1cc(C(=O)N2C[C@@H](Oc3ccccc3)C[C@H]2C(=O)N2CCCC2)nn1C		inactive: -11.8%	
CCOc1ccccc1C(=O)N1CCN(c2cc(-c3ccc(F)cc3)[nH]n2)CC1	inconclusive: 44.7 µM [inhibitor, partial curve, poor fit]		
COCC(=O)NC1CCC12CCN(C(=O)c1cccc3[nH]ccc13)CC2 (stereo unspecified)		inactive: -0.509%	
O=C(NCCC1CCCCC1)C1CCCN1C(=O)c1cccc(-c2cccnc2)c1 (stereo unspecified)	inconclusive: 50.1 µM [inhibitor, partial curve, poor fit]		
O=C(Nc1ccc([C@@H](O)[C@H]2COCC(=O)N2Cc2ccccc2F)cc1)c1ccccc1	inconclusive: 39.8 µM [inhibitor, full curve]		
CC(=O)Nc1ccc(C(=O)N2CCC3(CC2)N=C(c2ccccc2)NO3)cc1		inactive: -0.355%	
COCC(=O)N(C1CCOCC1)C1CCN(C(=O)c2cccc(C)c2)CC1	inconclusive: 70.8 µM [inhibitor, single point]		
CN1Cc2cccn2CC1CNC(=O)Cc1cccc(F)c1 (stereo unspecified)	inconclusive: 70.8 µM [inhibitor, single point]		
COc1ccccc1CNC(=O)c1nn(CC2CC2)c2c1CNCC2		inactive: -23.4%	
COc1ccccc1Nc1ccnc(N2CCCC(C(=O)NCCc3ccccc3)C2)n1 (stereo unspecified)	active: 15.8 µM		
c1cncc(-c2nc3ccncc3[nH]2)c1	inconclusive: 100 µM [inhibitor, partial curve, poor fit] and inconclusive: 112 µM [inhibitor, partial curve, poor fit]		
O=C1CO[C@H]2CCN(Cc3ccccc3O)CC[C@@H]2N1c1ccccc1	inconclusive: 89.1 µM [inhibitor, partial curve, poor fit]		
COc1ccc(CC(=O)N2CCN(c3nccc(Nc4ccccc4Cl)n3)CC2)cc1	active: 39.8 µM		
N#Cc1ccc(S(=O)(=O)N2CCC3(CC2)CC(CC(=O)N2CCOCC2)CCO3)cc1 (stereo unspecified)	inconclusive: 20 µM [inhibitor, full curve, poor fit]		
Cn1cc(CN2CCOC[C@H]2c2ncc(-c3ccc(F)cc3F)[nH]2)c2ccccc21	active: 50.1 µM		
O=C(CN1C(=O)NC(c2ccc(Cl)cc2)C2=C1COC2=O)Nc1cccc(C(F)(F)F)c1 (stereo unspecified)	inconclusive: 10 µM [inhibitor, full curve, poor fit]		
O=C1NCCCCCN(Cc2cccnc2)[C@@H]2CN(C(=O)C3CCCCC3)CC[C@@H]12	inconclusive: 56.2 µM [inhibitor, partial curve, poor fit]		
CN1c2ncccc2CN(Cc2ccccc2O)CC[C@H]1CO		inactive: -9.87% [at 138 µM]	

SMILES	Potency	activity change, negative = cytotoxicity	outcome
COc1ccccc1CC(=O)N1CC[C@@H]2NC(=O)[C@H]3C[C@H](NC(=O)C4CCC4)CN3C(=O)[C@H]21			inactive
CCN(CC)C(=O)c1csc(-c2cccc(OC(C)C)c2)n1	inconclusive: 39.8 µM [inhibitor, partial curve]		
Cc1cc(C)cc(C(=O)Nc2ccc3c(N4CCCC4)ncnc3c2)c1	inconclusive: 2.82 µM [inhibitor, full curve]		
Cc1cc(=O)n(CC(=O)NCc2ccc3c(c2)OCO3)c(N2CCc3ccccc3C2)n1	inconclusive: 70.8 µM [inhibitor, single point]		
O=C(Cn1c2c(c(=O)n1Cc1ccccc1)CCN(Cc1ccccc1)C2)N1CCC(c2ccccc2)CC1		inactive: -35.9%	
Cc1cccc(-c2nc3ccc(C(=O)NCC(F)(F)F)cc3o2)n1	inconclusive: 39.8 µM [inhibitor, partial curve]		
O=C1NCCCCCN(C(=O)CC2CCCCC2)[C@H]2CCCC[C@@H]12		inactive: -15.1%	
Cc1ccc(CNC(=O)c2ccc3c(c2)CN(Cc2cc(F)c(F)c(F)c2)CCO3)cc1	inconclusive: 25.1 µM [inhibitor, full curve]		
COCC(=O)N(C1CCOCC1)C1CCN(S(=O)(=O)c2c(C)noc2C)CC1	inconclusive: 50.1 µM [inhibitor, single point]		
Cn1c(C(=O)NC(C)(C)C)cc2c1CCN(Cc1cccc(F)c1)C2	inconclusive: 70.8 µM [inhibitor, single point]		
Cc1cnc(C2CC2)n1C1CCCN(C(=O)c2ccoc2)C1 (stereo unspecified)		inactive: -15.6%	
CC[C@H]1CN(C(=O)Nc2ccccc2)CC[C@H]1CC(=O)Nc1ccccc1		inactive: -17.9% [at 174 µM]	
COc1cc(CN2C[C@@H](F)[C@@H](OCc3nc4ccc(F)cc4[nH]3)C2)cc(OC)c1OC		inactive: -11.6% [at 138 µM]	
CN(C)C[C@@H]1CN(Cc2ccccc2)C[C@H]1NC(=O)c1nn(C)c2ccccc12	inconclusive: 50.1 µM [inhibitor, partial curve, poor fit]		
CCOC(=O)[C@H]1[C@@H](O)C(=O)N(Cc2ccccc2)C12CCN(C(=O)c1cc3ccccc3s1)CC2	inconclusive: 50.1 µM [inhibitor, partial curve, poor fit]		
CC1(C(=O)NCc2ccncc2)CN(Cc2ccccc2)Cc2ccc(N3CCOCC3)nc21 (stereo unspecified)	inconclusive: 50.1 µM [inhibitor, partial curve, poor fit]		
COCCNC(=O)CCc1c(C)nn(-c2ccccc2)c1Oc1ccc(F)cc1F		inactive: -21.4%	
COc1ccc(CN2CCOc3ccc(C(=O)NCc4ccc(C)cc4)cc3C2)c(OC)c1	inconclusive: 50.1 µM [inhibitor, partial curve, poor fit]		
CCc1ccc(CN2CCCC(CO)(Cc3ccc(F)cc3F)C2)cc1 (stereo unspecified)	active: 79.4 µM		
COc1ccc(NC2CCCN(C(=O)C(=O)CC(C)C)C2)cc1OC (stereo unspecified)		inactive: 1.88%	
COc1ccc2[nH]c3c(c2c1)CCNC31CCN(S(=O)(=O)c2c(C)nn(C)c2C)CC1	inconclusive: 44.7 µM [inhibitor, partial curve, poor fit]		
O=c1c2c(n(CCOc3ccccc3)n1-c1ccccc1)CN(Cc1ccc3c(c1)CCO3)CC2	inconclusive: 50.1 µM [inhibitor, partial curve, poor fit]		
